From PubChem BioAssay AID463173 (ICCB-Longwood Screening Facility, Harvard Medical School, 2010)
About 4,300 (8.3%) of roughly 52,000 compounds were called active. Cut-off read from the data, not from the text of the source: active = survival mostly below about 52% (no sharp cut-off); inactive = mostly above about 56%. This is one part of the list.

test system: DeltatarO mutant; test: S. aureus survival, RN4220 and DeltatarO strains – OD600, teichoic acid synthesis inhibitors, primary screen (AID 463173); conditions: S. aureus RN4220 wild type/DeltatarO growth, OD600, 18 h, stronger effect = lower value, screened at 18.75 µg/mL (by protocol)

| SMILES | survival |
| --- | --- |
| COc1cccc(CNC(=O)CCc2nnc3n(CC(C)C)c(=O)c4ccccc4n23)c1 | inactive: 85% |
| CC(C)CC(=O)N1CC(=O)Nc2ccc(F)cc2C1c1ccccc1 (stereo not given) | inactive: 144% |
| CCC(Sc1nc2c(sc3ccccc32)c(=O)n1CCCC(=O)NC1CCCC1)C(=O)Nc1cccc(OC)c1 (stereo not given) | inactive: 114% |
| CC1(C)OC2C(CS(C)(=O)=O)OC(n3ncc(=O)[nH]c3=O)C2O1 (stereo not given) | inactive: 86% |
| Cn1c(CNC(=O)CSc2n[nH]c(-c3ccccc3)n2)nc2ccccc21 | inactive: 89% |
| CC(C)(C)C1CCc2c(sc(NC(=O)Cn3nnc(-c4cccc(C(F)(F)F)c4)n3)c2C#N)C1 (stereo not given) | inactive: 84% |
| CCCCCOC(=O)CSc1nc2sc3c(c2c(=O)n1Cc1ccccc1)CC(C)(C)OC3 | active: 41% |
| O=C(Cn1c(=O)n(-c2ccc(Cl)cc2)c(=O)c2c3c(sc21)CCC3)c1ccc(F)cc1 | inactive: 51% |
| CCCCc1nn2c(=O)cc(COC(=O)c3ccc(NC(=O)c4cccs4)cc3)nc2s1 | inactive: 75% |
| Fc1ccc(Nc2nc3nonc3nc2Nc2cccc(C(F)(F)F)c2)cc1 | active: -2% |
| COc1ccccc1N1CCN(C(=O)CSc2nc3ccccc3nc2Cc2ccc(F)cc2)CC1 | inactive: 95% |
| COc1ccccc1Cn1c(CNS(=O)(=O)c2ccc3c(c2)CCCC3)nc2cccnc21 | inactive: 96% |
| COc1ccccc1OCCSc1ncnc2nc[nH]c12 | inactive: 75% |
| Cc1csc2nc(COc3ccc(NC(=O)COc4ccccc4F)cc3)cc(=O)n12 | inactive: 70% |
| C=CCNCc1cc2cc(OCC)ccc2[nH]c1=O | inactive: 97% |
| O=C(NC1(C(F)(F)F)NC(=O)N(CCc2ccccc2)C1=O)c1ccccc1Cl (stereo not given) | inactive: 58% |
| C/C(=N/O)c1[nH]c(C)c(/C(C)=N\O)c1C | inactive: 81% |
| Cc1cccc(NC(=O)CSc2nnc(N)s2)c1 | inactive: 149% |
| CC(=O)c1cccc(NCc2ccccc2-c2nnc(-c3ccccc3)o2)c1 | inactive: 87% |
| CCOc1ccc(S(=O)(=O)N2CCC(N3CCN(Cc4ccc(F)cc4)C(=O)C3=O)CC2)cc1 | inactive: 75% |
| Cc1nc(-n2nc(C)c(Cc3ccccc3Cl)c2C)sc1C(=O)N1CCC(C)CC1 | inactive: 79% |
| CCOC(=O)C(CC)Sc1ncnc2sc3c(c12)CCCC3 (stereo not given) | active: -7% |
| CCC(C)NS(=O)(=O)c1ccc(-n2cnnn2)cc1 (stereo not given) | inactive: 107% |

| SMILES | survival |
| --- | --- |
| O=C(CCn1cccn1)NCc1ccc(Cl)cc1 | inactive: 73% |
| Cc1ccc(OCCSc2nc3ccc(NC(=O)c4ccc5c(c4)OCO5)cc3s2)cc1 | inactive: 87% |
| COc1ccc(NC(=O)c2cc3c(=O)n(C)c4ccccc4c3s2)cc1Cl | inactive: 80% |
| CCOC(=O)C1CCCN(C(=O)c2c(C)nn(-c3ccc(F)cc3)c2-n2cccc2)C1 (stereo not given) | inactive: 113% |
| O=C(Nc1ccc(F)cc1)C1CCN(c2nc3ccccc3n3cccc23)CC1 | inactive: 75% |
| CCCc1ccc(OC(=O)CSc2nnc(-c3cccs3)o2)cc1 | inactive: 64% |
| CCS(=O)(=O)N1CCc2cc(C(=O)Nc3cccc(C)c3C)ccc21 | inactive: 80% |
| CCOc1ccc(-c2cc3c(=O)n(CC(=O)NCc4ccc(OC)cc4)ccn3n2)cc1 | inactive: 96% |
| Cc1nn2c(=O)cc(COC(=O)c3cccc(NC(=O)COc4ccc(C)c(C)c4)c3)nc2s1 | inactive: 69% |
| Cc1c(-c2nsc(NC(=O)c3cccs3)n2)nnn1-c1ccc(Cl)cc1 | inactive: 81% |
| CCN(CC)CCCNC(=O)c1ccc2c(c1)N(Cc1c(F)cccc1Cl)C(=O)c1ccccc1S2 | inactive: 137% |
| CCSc1ncc(Cl)c(C(=O)N(Cc2ccccc2Cl)C2CCS(=O)(=O)C2)n1 (stereo not given) | inactive: 83% |
| O=C(C1CCN(S(=O)(=O)c2cccs2)CC1)N1CCN(c2cccc(Cl)c2)CC1 | inactive: 64% |
| O=C(NCCc1ccc(Cl)cc1)C(=O)NCC(c1ccco1)S(=O)(=O)c1cccs1 (stereo not given) | active: 20% |
| CSc1ncc2c(n1)-c1ccccc1N(Cc1ccc(F)cc1)S2(=O)=O | inactive: 126% |
| COC(=O)c1nnn(CC(=O)Nc2cc(F)ccc2F)c1C(=O)OC | inactive: 139% |
| COCCSc1nnc(NC(=O)C2CCCO2)s1 (stereo not given) | inactive: 111% |
| COc1ccc(C(CN)c2c[nH]c3ccccc23)cc1 (stereo not given) | inactive: 107% |
| Cc1oc2ccc(O)c(CN3CCCCCC3)c2c1C(=O)Nc1cccc(Cl)c1C | inactive: 94% |
| Cc1cccc(-n2ncc(C(=O)N3CCc4ccccc4C3)c2C2CCN(C(=O)OC(C)(C)C)CC2)c1 | inactive: 102% |
| CS(=O)(=O)N1CCC(NC(=O)Cc2ccccc2)CC1 | inactive: 78% |
| CCCn1c(=N)c(C(=O)NCc2cccnc2)cc2c(=O)n3cccc(C)c3nc21 | inactive: 53% |
| COc1cccc(-c2ccnc3c(-c4ccc(F)cc4)c(C)nn23)c1 | inactive: 93% |

| SMILES | survival |
| --- | --- |
| Cc1ccc(Oc2nc3c(c(=O)n(Cc4ccccc4)c(=O)n3C)n2C)cc1C | inactive: 44% |
| Cc1oc2ncnc(N3CCOCC3)c2c1C(=O)N1CCN(c2cccc(C(F)(F)F)c2)CC1 | active: -5% |
| CCN(C(=O)C1CCC(CNS(=O)(=O)c2cccc3nsnc23)CC1)c1cccc(C)c1 (stereo not given) | inactive: 96% |
| CCN(C(=O)C1CCC(CNS(=O)(=O)c2cccc3nsnc23)CC1)c1ccccc1 (stereo not given) | inactive: 63% |
| CC1(C)CC(=O)c2cc(C(=O)Nc3ccc(Br)cc3)c(=O)[nH]c2C1 | inactive: 70% |
| COc1ccc(NC(=O)C2=C(C)Nc3ncnn3C2c2ccc(C)o2)cc1 (stereo not given) | inactive: 96% |
| O=C(CCCc1ccccc1)Nc1ncn[nH]1 | inactive: 99% |
| O=C(Cc1ccc(NC(=O)N2CCSc3ncccc32)cc1)NCc1ccccc1 | inactive: 84% |
| Cc1cc(C)cc(NC(=O)Cn2c(=O)n(C(C)C)c(=O)c3oc4ccccc4c32)c1 | inactive: 48% |
| COc1ccc(C2=NN(S(C)(=O)=O)C(c3cn(-c4ccccc4)nc3-c3cccs3)C2)cc1 (stereo not given) | inactive: 169% |
| C#CCN1C(=O)C(O)(CC(=O)c2ccc(OC)c(OC)c2)c2cc(Br)ccc21 (stereo not given) | inactive: 78% |
| Cc1ccc(CN2C(=O)c3ccccc3Sc3ccc(C(=O)NCc4ccco4)cc32)cc1 | inactive: 81% |
| COc1ccc(-n2nc(C(=O)Nc3ccc(Br)cc3C)c3c4ccccc4n(C)c3c2=O)cc1 | inactive: 97% |
| COc1ccc(C(=O)N2CC(=O)Nc3ccc(C)cc3C2c2ccccc2)cc1OC (stereo not given) | inactive: 61% |
| CCOc1ccc(C2C=C(c3cccc(OC)c3)Nc3nnnn32)cc1 (stereo not given) | active: 45% |
| COc1ccc(N=Cc2ccc(Br)s2)cc1 | inactive: 98% |
| O=C(COc1ccccc1)NCC(c1cccs1)S(=O)(=O)c1ccc(Cl)cc1 (stereo not given) | inactive: 72% |
| CC(C)(C)c1ccc(C(=O)NNc2ncnc3c2cnn3-c2ccccc2)cc1 | inactive: 115% |
| CCN(C(=O)Cn1c(SCC(=O)Nc2ccc(OC)cc2)nc2ccccc21)c1cccc(C)c1 | inactive: 130% |
| COc1cccc(C(=O)Nc2ccc(-n3nncc3-c3ccc(Br)cc3)cc2)c1OC | inactive: 100% |
| COc1ccc(OCC(=O)N2CCN(C(=O)c3cc(OC)c(OC)c(OC)c3)CC2)cc1 | inactive: 80% |
| COc1ccc(/C=C/C(=O)N2CCC(c3nc4ccccc4o3)CC2)cc1OC | inactive: 86% |
| CCOc1ccccc1NC(=O)N(C)CCc1c(C)nn(CC)c1C | inactive: 120% |

| SMILES | survival |
| --- | --- |
| Cc1ccc(NC(=O)c2ccc(=O)n(CC(=O)Nc3c(C)cc(C)cc3C)n2)cc1 | inactive: 73% |
| Cc1ccc(COc2ccc3oc(-c4ccccc4)c(C(=O)O)c3c2)cc1 | active: 34% |
| CCCC12CN3CC(C)(CN(C1)C3c1ccccc1Cl)C2=O (stereo not given) | inactive: 138% |
| CCNC(=O)c1c(NC(=O)COc2ccc(F)cc2)sc2c1CCCC2 | inactive: 59% |
| O=C(Nc1ccc(Br)cc1)N1CCC(CN2CCCC2)CC1 | inactive: 91% |
| O=C(NC1CCCC1)C(c1ccccc1)N(Cc1cccs1)C(=O)Cn1nnc2ccccc21 (stereo not given) | inactive: 65% |
| CCOc1ccc(C2C(C(=O)Nc3ccc(OC)cc3)=C(C)Nc3nc(SCc4ccc(Cl)cc4)nn32)cc1 (stereo not given) | inactive: 112% |
| COc1ccc(NC(=O)CSc2c3c(nc4ccc(Cl)cc24)CCCC3)cc1Cl | inactive: 55% |
| COc1ccc(N2CCN(CCCNC(=O)c3ccc4nc(CCc5ccccc5)oc4c3)CC2)cc1 | inactive: 89% |
| Cc1ccccc1NC(=O)CS(=O)(=O)c1cccc2nsnc12 | inactive: 80% |
| Cc1c(Cl)cccc1NC(=O)c1ccc(NC(=O)N2CCSc3ncccc32)cc1 | inactive: 72% |
| Cc1cnc(NC(=O)C(C)N2CCN(C)CC2)s1 (stereo not given) | inactive: 98% |
| Cc1cccc(Nc2nc(C)nc(N)c2S(=O)(=O)c2ccccc2)c1 | inactive: 88% |
| Cc1c(C2=CCN(S(=O)(=O)c3ccc(Br)cc3)CC2)c2ccccc2n1CC(=O)N1CCCC1 | inactive: 59% |
| Cc1cc(C)cc(NS(=O)(=O)c2ccc3c(c2)OCC(C(=O)N2CCCC2)O3)c1 (stereo not given) | inactive: 88% |
| COc1ccc2nc3oc(C(=O)Nc4cccc(C(F)(F)F)c4)cc3cc2c1 | inactive: 84% |
| Cc1ccc2nc(-c3ccc(C)c(NC(=O)Cc4ccccc4)c3)oc2c1 | inactive: 77% |
| CN(C(=O)Cn1nc(C(F)(F)F)c2c1CCC2)C1CCCCC1 | inactive: 70% |
| Cc1nc(Oc2ccccc2C)c2oc3ccccc3c2n1 | inactive: 101% |
| Cc1ccc(CNC(=O)c2sc3nc4n(c(=O)c3c2C)CCCC4)cc1 | inactive: 80% |
| COc1ccc2c(c1)CC(C(=O)NCCN1CCN(c3cccc(Cl)c3)CC1)CO2 (stereo not given) | inactive: 86% |
